First the molecules themselves.
T1: RBFOX1 RRM (Homo sapiens, UniProt Q9NWB1 109-208)
T1 sequence: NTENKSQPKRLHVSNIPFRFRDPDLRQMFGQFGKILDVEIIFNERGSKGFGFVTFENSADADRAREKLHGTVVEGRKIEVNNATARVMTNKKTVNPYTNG

B1: AUAGUGU (DNA:RNA)
RNA: GGGAGACCGGAAUUCAGAUUGUCCAUAGUGUUUAAAUCCCGUCGUAGCCACCA
DNA 1: CAATCTGAATTCCGGTCTCCC
DNA 2: TGGTGGCTACGACGGGATT
B2: CACUGGC (DNA:RNA)
RNA: B1 RNA with A25C, U26A, A27C, G28U, U29G, U31C
DNA 1: CAATCTGAATTCCGGTCTCCC
DNA 2: TGGTGGCTACGACGGGATT
B3: UUCUUGC (DNA:RNA)
RNA: B1 RNA with A25U, A27C, G28U, U31C
DNA 1: CAATCTGAATTCCGGTCTCCC
DNA 2: TGGTGGCTACGACGGGATT
B4: CACCUGU (DNA:RNA)
RNA: B1 RNA with A25C, U26A, A27C, G28C
DNA 1: CAATCTGAATTCCGGTCTCCC
DNA 2: TGGTGGCTACGACGGGATT
B5: UGUAAUU (DNA:RNA)
RNA: B1 RNA with A25U, U26G, A27U, G28A, U29A, G30U
DNA 1: CAATCTGAATTCCGGTCTCCC
DNA 2: TGGTGGCTACGACGGGATT
B6: ACGCAAA (DNA:RNA)
RNA: B1 RNA with U26C, A27G, G28C, U29A, G30A, U31A
DNA 1: CAATCTGAATTCCGGTCTCCC
DNA 2: TGGTGGCTACGACGGGATT
B7: ACUCAGA (DNA:RNA)
RNA: B1 RNA with U26C, A27U, G28C, U29A, U31A
DNA 1: CAATCTGAATTCCGGTCTCCC
DNA 2: TGGTGGCTACGACGGGATT
B8: UUGUAGU (DNA:RNA)
RNA: B1 RNA with A25U, A27G, G28U, U29A
DNA 1: CAATCTGAATTCCGGTCTCCC
DNA 2: TGGTGGCTACGACGGGATT
B9: GUCUCCA (DNA:RNA)
RNA: B1 RNA with A25G, A27C, G28U, U29C, G30C, U31A
DNA 1: CAATCTGAATTCCGGTCTCCC
DNA 2: TGGTGGCTACGACGGGATT

Positions count from the first letter of the chain named. This is one part of the list.

The experiment addresses T1, RBFOX1 RRM. In words: EMSA; HiTS-Eq, 1 nM pool, 10 min; buffer printed only for the single-RNA assays: 10 mM Tris pH 7.5, 150 mM NaCl, 3.4 mM EDTA, 0.001% NP-40, 30 C. The conditions noted are these: tags: His6 N-terminal (pET28a); label: 5' 32P. In short, it runs like this: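 Purified RbFox RRM (wild type or mutant) was equilibrated for 10 min in 50 µL with 1 nM of a 5′-radiolabelled pool of RNA with 7 randomized nucleotides, its flanks annealed to DNA oligonucleotides, across increasing protein concentrations. Free RNA was separated by 8% native PAGE, excised, reverse-transcribed, PCR-barcoded and sequenced on an Illumina HiSeq 2500. Relative association constants came from read-count changes of each variant against the control reaction, normalised to the cognate motif.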
Take B1: the binding signal is 0.0112 KA relative to UGCAUGU.

Regarding B2, the binding signal is 0.00998 KA relative to UGCAUGU.

B3: the binding signal is 0.0232 KA relative to UGCAUGU.

Regarding B4, the binding signal was 0.00677 KA relative to UGCAUGU.

Turning to B5, the binding signal was 0.00803 KA relative to UGCAUGU.

On to B6, for which the binding signal is 0.0029 KA relative to UGCAUGU.

Turning to B7, the binding signal is 0.00734 KA relative to UGCAUGU.

In the case of B8, the binding signal was 0.0147 KA relative to UGCAUGU.

For B9, the binding signal was 0.0117 KA relative to UGCAUGU.

Values taken from paper PMC9911399, “Two distinct binding modes provide the RNA-binding protein RbFox with extraordinary sequence specificity”.
